Reference: PubChem BioAssay AID1460 (National Center for Advancing Translational Sciences (NCATS), 2008)
The whole screen tested about 270,000 compounds, of which about 5,800 (2.1%) were called active. The shares of active, inactive and inconclusive entries below differ from those in the screen. Calls come from the whole dose curve; as a rule, active = well fitted inhibition curve with a large enough effect; inconclusive = small, poorly fitted or top-dose-only effect; inactive = flat fitted curve, though single readings scatter. Potencies beside an inconclusive call are fits to weak or partial responses and may not hold up.

Molecular target: Microtubule-associated protein tau (Homo sapiens) (UniProt P10636)
Sequence of UniProt P10636 (P10636 whole entry, looked up): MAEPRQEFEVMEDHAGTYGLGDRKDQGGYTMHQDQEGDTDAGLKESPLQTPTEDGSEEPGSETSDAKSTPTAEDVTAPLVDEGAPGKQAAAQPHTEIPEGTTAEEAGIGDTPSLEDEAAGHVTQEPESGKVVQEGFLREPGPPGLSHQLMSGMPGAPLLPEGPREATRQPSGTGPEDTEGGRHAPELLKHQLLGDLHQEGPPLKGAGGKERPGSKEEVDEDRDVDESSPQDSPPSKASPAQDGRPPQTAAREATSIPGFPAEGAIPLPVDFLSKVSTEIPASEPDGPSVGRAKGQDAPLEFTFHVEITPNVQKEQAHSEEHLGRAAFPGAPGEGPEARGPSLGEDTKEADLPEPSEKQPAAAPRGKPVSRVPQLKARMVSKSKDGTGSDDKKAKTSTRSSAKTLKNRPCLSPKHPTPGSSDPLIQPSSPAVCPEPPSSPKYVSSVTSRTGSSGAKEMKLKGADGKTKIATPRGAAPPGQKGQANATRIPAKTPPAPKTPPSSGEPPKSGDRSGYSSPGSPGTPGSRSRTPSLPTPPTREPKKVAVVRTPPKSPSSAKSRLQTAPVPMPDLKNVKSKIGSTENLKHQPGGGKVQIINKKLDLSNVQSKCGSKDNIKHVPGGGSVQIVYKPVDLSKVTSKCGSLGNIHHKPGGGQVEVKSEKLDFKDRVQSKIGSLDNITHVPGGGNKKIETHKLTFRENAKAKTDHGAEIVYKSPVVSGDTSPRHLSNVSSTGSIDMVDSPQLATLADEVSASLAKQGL
Test: qHTS for Inhibitors of Tau Fibril Formation, Thioflavin T Binding; note: nearly all actives have a fitted effect of over 55% in size
Details: recombinant tau K18 P301L (four-repeat tau fragment), heparin-induced fibrillization, ThT fluorescence; series mostly up to 57.4 µM
Summary of the method: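 K18 P301L tau (15 uM + 0.24 uM Alexa 594-tagged), heparin 20 uM, NaOAc pH 7, 6 h 37 C; ThT 30 uM, 1 h RT, ex 450/em 510 nm.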
Potency is the fitted concentration of half-maximal effect; tags give direction and shape of the fitted curve.

SMILES	Potency
CCOc1ccc(/C=C/c2nc(C#N)c(NCCCN(C)C)o2)cc1	inconclusive: 12.6 µM [inhibitor, partial curve]
C=CCNc1nc(-c2sc(NC(=O)CC)nc2C)cs1	inconclusive: 15.8 µM [inhibitor, partial curve]
COc1ccc(C2CC(=O)N3CN(Cc4ccco4)CSC3=C2C#N)cc1 (centres undefined)	active: 25.1 µM
C=CCN1C(=O)C(Cc2cccc(Cl)c2)SC1=Nc1ccc(C(=O)O)cc1 (centres undefined)	inconclusive: 39.8 µM [inhibitor, single point]
Cn1c(-c2ccc3c(c2)OCO3)cnc1NC(=O)CCC(=O)NCCc1ccccc1	inconclusive: 1.78 µM [inhibitor, full curve, poor fit]
COc1cc(/C=C2\SC(=O)N(c3cccc(Cl)c3)C2=O)cc([N+](=O)[O-])c1O	active: 8.91 µM
Cc1nc(Nc2ccccc2)sc1-c1ccccc1	inconclusive: 7.08 µM [inhibitor, partial curve]
Cn1c(=O)cc(SCC(=O)NCc2ccco2)c2ccccc21	inconclusive: 12.6 µM [inhibitor, partial curve]
Cc1cc(C)cc(NC(=O)c2cccc(C(=O)Nc3cc(C)cc(C)c3)c2)c1	inactive
O=C(/C=C/c1ccc([N+](=O)[O-])cc1)NCCSc1ccccc1	inconclusive: 6.31 µM [inhibitor, partial curve]
O=C(NCc1ccccc1)C1=C[C@H](c2csc3ccccc23)C[C@H](OCCCCO)O1	inconclusive: 5.01 µM [inhibitor, single point]
O=C(CSc1ccc(-c2nc3ccccc3[nH]2)cn1)N1CCN(C(=O)c2ccco2)CC1	inactive
COc1ccc(-n2c(=O)c3c(c4cc(OC)ccc4n3C)n(CC(=O)N3CCCC3)c2=O)cc1	inactive
CCOC(=O)CCCCC(=O)c1[nH]c(=O)[nH]c1CSc1nnc2c3cc(Br)ccc3n(C)c2n1	inactive
CCOc1ccc(CNC(=O)C2CCCN(c3nn4cc(-c5ccc(F)cc5)nc4s3)C2)cc1 (centres undefined)	inconclusive: 12.6 µM [inhibitor, partial curve]
COc1cccc(N=c2oc3ccc(OC)cc3cc2-c2nc3ccccc3[nH]2)c1	inconclusive: 28.2 µM [inhibitor, partial curve]
CC(C)C1=CC2=CCC3[C@@](C)(CCC[C@@]3(C)C(=O)O)C2CC1 (some centres undefined)	inconclusive: 17.8 µM [inhibitor, partial curve, poor fit]
COC(=O)c1ccccc1NC(=O)Cn1c(CCC(=O)O)ccc1-c1ccc(C)cc1	inconclusive: 11.2 µM [inhibitor, partial curve]
CCOC(=O)NC1(NCC(C)C)Oc2ccccc2O1	inconclusive: 28.2 µM [inhibitor, partial curve]
Cc1ccc2c(c1)N(C(=O)CCC(=O)NCc1cccs1)CC(C)O2 (centres undefined)	inactive
O=C(c1cccnc1)N1CCN(C(=O)c2ccco2)CC1	inactive
CCO/C=C1\SC(=S)N(c2ccc(Cl)cc2)C1=O	inconclusive: 44.7 µM [inhibitor, single point]

SMILES	Potency
O=C(CCN1C(=O)/C(=C/c2cccs2)SC1=S)NC1=NCCS1	inconclusive: 1.26 µM [inhibitor, full curve]
CCN1CCN(C(=O)C(N)Cc2ccccc2)CC1 (centres undefined)	inconclusive: 22.4 µM [inhibitor, single point]
Cc1ccccc1C(=O)N1CCN=C1SCc1ccc([N+](=O)[O-])cc1	inconclusive: 11.2 µM [inhibitor, partial curve]
COc1ccc(/C=C2\C(=O)NC(=S)N2C(=O)c2ccc(C)cc2)cc1	inconclusive: 10 µM [inhibitor, partial curve]
COc1ccc(Nc2nc(-c3cccs3)nc3ccccc23)cc1	inconclusive: 28.2 µM [inhibitor, single point]
CC1CCN(C(=O)CSc2nnc(NC(=O)Nc3ccccc3)s2)CC1	inactive
COc1ccc(OC)c(NC(=O)Cn2c(=O)n(-c3ccc(Cl)cc3)c(=O)c3c(C)c(C)sc32)c1	inactive
Nc1nc(N)c(N=Nc2ccc(S(N)(=O)=O)cc2)c(=O)[nH]1	active: 20 µM
Cc1ccc(N2C(=O)CCSC23C(=O)N(Cc2ccc(F)cc2)c2ccccc23)cc1 (centres undefined)	inconclusive: 25.1 µM [inhibitor, partial curve]
CCOc1cccc(C(=O)N(Cc2ccc(F)cc2)Cc2ccco2)c1	inconclusive: 0.355 µM [inhibitor, partial curve, poor fit]
CCOC(=O)c1c(NC(=O)COc2ccc(C(C)(C)C)cc2)sc2c1CCCC2	inconclusive: 20 µM [inhibitor, partial curve]
COc1cc(-c2ccno2)ccc1S(=O)(=O)N1CCN(c2ccccc2)CC1	inactive
CC(C)C(=O)Nc1nnc(SCc2cc(=O)n3ccccc3n2)s1	inactive
O=c1c2sccc2[nH]c(=S)n1Cc1ccccc1	inactive
CN1CCN(C(=S)Nc2ccc(S(N)(=O)=O)cc2)CC1	inactive
CC(=O)c1c(C)n(-c2ccc(C)cc2)c2ccc(OC(=O)COc3ccccc3)cc12	inconclusive: 6.31 µM [inhibitor, partial curve]
COc1cc(/C=C2/SC(=S)N(CC3CCCO3)C2=O)ccc1O (centres undefined)	active: 14.1 µM
O=C(Nc1ccc2oc(-c3ccc4ccccc4c3)nc2c1)c1cc(Cl)ccc1Cl	inconclusive: 11.2 µM [inhibitor, partial curve, poor fit]
CCCOc1ccc(C(=O)NC(=S)NCc2cccnc2)cc1	inconclusive: 28.2 µM [inhibitor, single point]
CCCCOC(=O)C1=C(C)Nc2ncnn2C1c1cc(OC)c(OC)cc1OC (centres undefined)	inconclusive: 25.1 µM [inhibitor, partial curve, poor fit]
CS(=O)(=O)c1ncc(Cl)c(C(=O)Nc2c(C(=O)c3ccc(Cl)cc3)oc3ccccc23)n1	inconclusive: 17.8 µM [inhibitor, partial curve]
COc1cccc(-c2nc3c(C#N)c[nH]n3c2NC2CCC(C)CC2)c1 (centres undefined)	inconclusive: 22.4 µM [inhibitor, single point]
